Laboratory results published in the supplement of paper PMC10681739.
Over roughly 2,700 sequences, “arbitrary fluorescence units” has its median near 4,100; the highest 2% begin near 54,000. This is one part of the list.

These sequences were tested against T1, ETS1 (UniProt P14921) (assay: ETS1 binding intensity (PBM fluorescence) (arbitrary fluorescence units); higher = stronger binding). Conditions: ETS1 concentration 10 nM.
T1 sequence: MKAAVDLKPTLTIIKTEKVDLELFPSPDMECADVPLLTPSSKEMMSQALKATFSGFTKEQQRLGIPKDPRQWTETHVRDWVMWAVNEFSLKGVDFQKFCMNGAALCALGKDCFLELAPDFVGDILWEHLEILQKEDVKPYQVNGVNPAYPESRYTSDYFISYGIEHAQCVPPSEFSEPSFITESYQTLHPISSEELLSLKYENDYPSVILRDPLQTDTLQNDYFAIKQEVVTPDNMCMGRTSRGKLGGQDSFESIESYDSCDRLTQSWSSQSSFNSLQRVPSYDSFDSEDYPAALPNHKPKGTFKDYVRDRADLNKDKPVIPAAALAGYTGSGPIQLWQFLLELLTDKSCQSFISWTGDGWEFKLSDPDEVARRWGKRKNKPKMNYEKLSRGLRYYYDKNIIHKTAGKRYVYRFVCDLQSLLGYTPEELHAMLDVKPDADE
Protocol: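 gcPBM on wild-type 36-bp genomic probes with two neighbouring ETS1 sites (4-24 bp apart). Recombinant human ETS1 (10 nM) was detected with anti-ETS1 antibody fluorescence. Values are medians over 3 replicate spots. The probes sit in constant array flanks that are not printed.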

Sequence | ETS1 binding intensity
TTGACAGGATGTGTTTAGAGGAGAGATTTCCGTAGC | 2900
GACAAACACATCCTGAAATAACAGGAAATGAACTAT | 6800
TGGGAGGAAGGTGCGAGCCAGACCCACATCCTCTCT | 193
ACCCCAACACTTCCCCAGTCAATTTCCTGTGTTAGG | 4950
CGCCGGGAAGCCCACAGCATCTGATAATATCCGGGC | 305
TCCCTGGGAAGTTTGCGGGCAGCCCCATCCTGTGTC | 183
GCCCAGGAAACGTGGCGGCCCCGCAGCCGGAAGCGC | 1780
CCGCGCCTCCAGCGGAAGCCGGAAGCAAAAGCGGGT | 5670
TAGCGCTCCGCTTCCGCTGGCTTCCGCACCCGGGCC | 12300
AGTATGTAATTTCCTCACGGCATTTCCGACATATTT | 2500
CCCACATCCTGCACTCGTGATAAACAGTTTCCTGTT | 19000
CCCAAGCCTGTTTCCTGCTCTGGGAAATGAGCTGAC | 12800
CCCCGGCGACGGAAGCAGCGGCGGAACGCGAGCCTC | 857
GACCCTTCCGTCCCCTGCAGCGCCTGCTTCCTGGAC | 7950
GACAACAGGAAGCGTTCCAACTGCCGGAAAAGACGC | 9640
GAGAGGCATCCGGGCGAGGAGCTGCGGATGGGGGCG | 6210
AGGGCTACGGAAGTTGCTCTGTGGTTTCCGGCACTG | 3790
GAGTCATTTCCTGTGCTATCAGCTCCGGAAGCAGAG | 48200
GCGGTCCGGCCGGAAGTCACCGGAAGAGGCCGGTGT | 25500
ACCCACTTACATCCTCGGAATAGGAAATAGATTAGT | 577
GAGGAGGAAATCGCTGCTCTCCGCTCCTTCCTGTAG | 1340

Sequence | ETS1 binding intensity
CTGACTCCCATCCTGGCAAGAGGCTTCCGGAGTGTT | 1390
GTGGTTTCCTGGGTATGCCAGAACCACAGGATGCAA | 10500
GTACCCCGGAAGCAGTCGCTGCAACTTCCGGGAGGT | 13500
GAGCGGAAGGGGGCCGCCGGGCACGCCGGGAAGTGT | 764
GGGAATACATCCTCTTACAGGCCAGGATATGACTCA | 6690
TTTTTCTTCCGTCTGAGTTCAGCAAACTTCCTGCTT | 3220
GGGCACTTCCGGGGCCGGCGCCCAGAGTTCCGGGAG | 46800
CTTGCTTCCTCAGGTGTCATCTCCAGCTTCCGCTTG | 2610
GGCGTGGTCTTCCGTGGGAGAGAAGGAAATTCTTTG | 234
CAGCATTTCCTGAAGTCAAGCGCTCAGGAAATGGTT | 12200
GTGCTACAGGGGAAGTGAAGAAAGGAAGCACCTGGC | 495
TGGCACATACATCGGAAACAGGAAAAAATGTGAAAA | 298
TGTACATTTCCTGTCTCAGATCTGTTTCCTTTTAGT | 40000
GTCTTTGAAAGGGCTTCCTTCCTGTTGTCTGGACCC | 3470
GGAACAAGCAGGAAGTAGAAGAGGAAATGAGATGTG | 10200
TGAGTCAGTTTGCTTCCTGGGGAAGTGACAGGGAGC | 1070
TGTCCATTTCCCACCCTAAAGAGAACATCCTGCATA | 1660
CCACGGAGCAGGAAGTGGCACCGGAAGCAGAGGGCA | 17100
TTTTGACGTTTCCTATTGTTGCCGGAAGTGACGTTA | 8580
TAGCTGTTGGGGTTTCCGTTTCCTGGGCGTCTCAGC | 4820
GTCACGACCCTTCCTGGTCTCTCTTCCTGCAGGATG | 1430

Sequence | ETS1 binding intensity
ATTAAACTGCCTTCCTGTTTCAGGAAGCTGGGCCCA | 5600
CTGATAGGGGAAGTGGGAGTTGACAGGATGGTTTAA | 424
AGACAGGAAGTGGAACCGCTAATTCCGGTGCGGTGG | 12400
AGAGGCGGAAATACAAAGAAAAGAACGGATGAGAGA | 5200
CGGCCGGAACACAAAAAGGAGAAGCCCGGATGTTTG | 496
GCCAGGGAAGGCTTCCTGGAGGAAGTGACACATAAG | 2940
TTGTGCAGGAAGTTGGGTTTATCACTTCCTCACAGT | 5870
GGAGCGGAGCCACATCCCACATCCTGGCGGGCCCTC | 2330
TGGCACATCCGGCAACACTGCCTCGCCTTCCTGCCT | 35200
CAACAGGAAATTTCAAAACCAGAACAAAGGAAATGC | 2850
CGAGCCGGAAGCTCCGACTGCGGCGGCATCCGGGAC | 9580
AGCAAGGGAAGTGATGTGTGGCCTCCGGAAGGACGC | 518
TTTTGCTCTTCCTGCCATGTGCATTTCCGGCTTGCA | 16100
TTTAGTAGAGAGGATGTCAACTTCCCTGTTTGGGTC | 550
AGGCTCTGTCTCACTTCCTTCCGGTGTTGCTTAGCT | 17000
CACGTCGGAGCCACATCCTTTCCTGTCCCCGTGACA | 5100
ACTGGGACAGGATGGGGAGGGGCAGGAAGCCAGACA | 1260
CTGGGCCCTTCCTGCCAGGTTGCACTTCCTGATAGC | 8540
TAACTAGATAACTTCCCCACATCCTGTTGTTTACTA | 5940
TCTACAGGAAGAGCATTCCCAGTGGAGGAAATGGCA | 1730
